Results published in US11000038B2, “Pyridone compounds and agricultural and horticultural fungicides containing the same as active ingredients” (priority 2017, dated 2021).

How the values were obtained:
[1] = tested on: barley powdery mildew fungi (Blumeria graminis f. sp. hordei); assay: Test Example D: barley powdery mildew, spray treatment of barley plants; settings: spray treatment of barley plants; control value=100{1-(n/3)}
[2] = tested on: wheat brown rust fungi (Puccinia recondita); assay: Test Example E: wheat brown rust, spray treatment of wheat plants; type: in vivo; settings: spray treatment of wheat plants; control value=100{1-(n/3)}
[3] = tested on: gray mold fungi (Botrytis cinerea); assay: Test Example B: tomato gray mold, spray treatment of tomato plants; settings: spray treatment of tomato plants; control value=100{1-(n/3)}
[4] = tested on: cabbage Alternaria sooty spot fungi (Alternaia brassicicola); assay: Test Example C: cabbage Alternaria sooty spot, spray treatment of cabbage plants; type: in vivo; settings: spray treatment of cabbage plants; control value=100{1-(n/3)}
From the text: [Test Example C] Cabbage Alternaria Sooty Spot
Test plants (cabbage variety: Shikidori) were cultivated until the cotyledons extended after the sowing of seeds.
<Control Value> Control value=100{1−(n/3)}

[5] = tested on: grape downy mildew fungus (Plasmopara viticola); assay: Test Example G: grape downy mildew, spray treatment of grape plants; settings: 250 ppm spray, 2.5 ml/pot, grape Neomuscat; 7 to 10 days from inoculation

Compound | Test D control value class (barley powdery mildew) [1] | Test E control value class (wheat brown rust) [2] | Test B control value class (tomato gray mold) [3] | Test C control value class (cabbage Alternaria sooty spot) [4] | Test G control value class (grape downy mildew) [5]
Cc1cn(C(C)C(C)C)c(-c2c(F)cc(F)cc2F)c(Cl)c1=O (centres unmarked) [Compound 135] | H (H shows the control value of more than 50%) | H (H shows the control value of more than 50%) | H (H shows the control value of more than 50%) | H (H shows the control value of more than 50%) | L (L shows the control value of 50% or less)
CC(=O)c1cn(C(C)C(C)C)c(-c2c(F)cc(F)cc2F)c(Cl)c1=O (centres unmarked) [Compound 136] | L (L shows the control value of 50% or less) | H (H shows the control value of more than 50%) | H (H shows the control value of more than 50%) | H (H shows the control value of more than 50%) | H (H shows the control value of more than 50%)
CC(C)C(C)n1cc(C(F)(F)F)c(=O)c(Cl)c1-c1c(F)cc(F)cc1F (centres unmarked) [Compound 137] | H (H shows the control value of more than 50%) | L (L shows the control value of 50% or less) | H (H shows the control value of more than 50%) | L (L shows the control value of 50% or less) | L (L shows the control value of 50% or less)
Cc1cc(-n2cc(Cl)c(=O)c(Cl)c2-c2c(F)cc(F)cc2F)no1 [Compound 138] | L (L shows the control value of 50% or less) | H (H shows the control value of more than 50%) | H (H shows the control value of more than 50%) | H (H shows the control value of more than 50%) | L (L shows the control value of 50% or less)
O=c1c(Br)cn(-c2cccc(Cl)c2)c(-c2c(F)cc(F)cc2F)c1Br [Compound 140] | L (L shows the control value of 50% or less) | L (L shows the control value of 50% or less) | L (L shows the control value of 50% or less) | H (H shows the control value of more than 50%) | L (L shows the control value of 50% or less)
Cc1ccc(C)c(-n2cc(Br)c(=O)c(Cl)c2-c2c(F)cc(F)cc2F)c1 [Compound 143] | H (H shows the control value of more than 50%) | H (H shows the control value of more than 50%) | H (H shows the control value of more than 50%) | H (H shows the control value of more than 50%) | H (H shows the control value of more than 50%)
Cc1ccc(C)c(-n2cc(Br)c(=O)c(Br)c2-c2c(F)cc(F)cc2F)c1 [Compound 144] | H (H shows the control value of more than 50%) | H (H shows the control value of more than 50%) | H (H shows the control value of more than 50%) | H (H shows the control value of more than 50%) | H (H shows the control value of more than 50%)
CCOC(=O)Cn1cc(Cl)c(=O)c(Cl)c1-c1c(F)cc(F)cc1F [Compound 145] | L (L shows the control value of 50% or less) | H (H shows the control value of more than 50%) | L (L shows the control value of 50% or less) | H (H shows the control value of more than 50%) | H (H shows the control value of more than 50%)
Cc1cc(-n2cc(Br)c(=O)c(Br)c2-c2c(F)cc(F)cc2F)no1 [Compound 146] | L (L shows the control value of 50% or less) | H (H shows the control value of more than 50%) | L (L shows the control value of 50% or less) | H (H shows the control value of more than 50%) | L (L shows the control value of 50% or less)
Cc1onc(-n2cc(Br)c(=O)c(Br)c2-c2c(F)cc(F)cc2F)c1Br [Compound 147] | H (H shows the control value of more than 50%) | H (H shows the control value of more than 50%) | H (H shows the control value of more than 50%) | H (H shows the control value of more than 50%) | H (H shows the control value of more than 50%)
Cc1ccc(C)c(-n2cc(Cl)c(=O)c(Br)c2-c2c(F)cc(F)cc2F)c1 [Compound 148] | H (H shows the control value of more than 50%) | H (H shows the control value of more than 50%) | H (H shows the control value of more than 50%) | H (H shows the control value of more than 50%) | H (H shows the control value of more than 50%)
Cc1ccc(C)c(-n2cc(Cl)c(=O)c(Cl)c2-c2c(F)cc(F)cc2F)c1 [Compound 149] | H (H shows the control value of more than 50%) | H (H shows the control value of more than 50%) | H (H shows the control value of more than 50%) | H (H shows the control value of more than 50%) | H (H shows the control value of more than 50%)
Cc1cn(C(C)C(C)C)c(-c2c(F)cc(F)cc2F)c(C)c1=O (centres unmarked) [Compound 152] | H (H shows the control value of more than 50%) | H (H shows the control value of more than 50%) | H (H shows the control value of more than 50%) | H (H shows the control value of more than 50%) | L (L shows the control value of 50% or less)
CC1CCCCC1n1cc(Cl)c(=O)c(Cl)c1-c1c(F)cc(F)cc1F (centres unmarked) [Compound 153] | L (L shows the control value of 50% or less) | H (H shows the control value of more than 50%) | H (H shows the control value of more than 50%) | H (H shows the control value of more than 50%) | L (L shows the control value of 50% or less)
CC1CCCCC1n1cc(Cl)c(=O)c(Br)c1-c1c(F)cc(F)cc1F (centres unmarked) [Compound 154] | H (H shows the control value of more than 50%) | H (H shows the control value of more than 50%) | H (H shows the control value of more than 50%) | H (H shows the control value of more than 50%) | L (L shows the control value of 50% or less)
COc1cc(F)c(-c2c(C)c(=O)c(C)cn2C(C)C(C)C)c(F)c1 (centres unmarked) [Compound 155] | H (H shows the control value of more than 50%) | H (H shows the control value of more than 50%) | H (H shows the control value of more than 50%) | H (H shows the control value of more than 50%) | L (L shows the control value of 50% or less)
